# Some of the results follow. The full chains were built here from the parent and the listed change. Inactive controls read about 0.05.
# B1: TEV protease; numbered along this chain (parent)
# chain: MGESLFKGPRDYNPISSSICHLTNESDGHTTSLYGIGFGPFIITNKHLFRRNNGTLVVQSLHGVFKVKDTTTLQQHLVDGRDMIIIRMPKDFPPFPQKLKFREPQREERICLVTTNFQTKSMSSMVSDTSCTFPSGDGIFWKHWIQTKDGQCGSPLVSTRDGFIVGIHSASNFTNTNNYFTSVPKNFMELLTNQEAQQWVSGWRLNADSVLWGGHKVFMVKPEEPFQPVKEATQL
# Variants of: B1
# Test: raw area under fraction-flipped curve 0-4 h after induction (AUC4h, not background-subtracted), DNA-recorder readout of cleavage of the substrate (dimensionless); higher = more cleavage of the substrate by the protease variant
# Conditions: temperature: 34 °C; time window: 0-4 h after rhamnose induction
# 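Note: Bxb1 expression induced with 0.2% (w/v) L-rhamnose at OD600 near 0.5, cultures sampled hourly, flipped fraction per protease–substrate barcode pair counted by paired-end Illumina sequencing.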
Variant,area with substrate ENLYFQE,area with substrate ENLYFQK,area with substrate ENLYFQS,area with substrate ENLYFQV,area with substrate ENLYFQI,area with substrate ENLYFQL,area with substrate ENLYFQM,area with substrate ENLYFQR,area with substrate ENLYFQT,area with substrate ENLYFQW
R81P,0.0471,0.0553,0.083,0.0517,–,–,–,–,–,–
F92N,0.0522,0.0601,0.0847,0.0444,0.0691,0.0617,0.0732,0.0558,0.0512,0.0337
I139T,0.0576,–,0.131,–,0.0819,0.055,–,0.0618,–,–
I145G,0.0593,–,0.0973,–,0.0614,0.0521,–,0.0566,0.0699,–
W212S,0.0958,0.0728,0.0829,–,0.0716,0.0319,–,0.0615,0.0566,–
G213C,0.0741,–,0.0668,0.0669,–,–,–,–,0.0499,0.0715
G2N,–,–,0.14,0.053,–,–,0.113,0.0628,–,–
G2S,–,–,0.14,–,–,–,0.104,–,0.0716,–
G2Y,–,0.0697,0.144,–,0.0645,0.046,–,–,0.0682,0.097
V57Q,–,0.049,0.133,–,–,–,–,–,–,0.0674
K66W,–,0.0548,0.0965,0.055,0.052,0.0639,0.0972,0.0579,0.0649,0.0614
M83R,–,0.0326,0.0498,–,–,0.0481,–,–,0.0572,0.0439
R87V,–,–,0.0785,0.0633,–,–,0.0865,–,0.0464,–
D91E,–,–,0.106,–,–,0.0749,–,–,–,–
F101S,–,–,0.0527,–,–,0.041,–,–,0.0456,–
T119L,–,–,0.102,–,–,0.0344,–,–,–,–
C131I,–,–,0.113,0.0649,0.0541,0.0602,–,–,0.0974,–
C131K,–,–,0.11,–,–,0.0581,–,0.0631,0.0758,0.0657
V165M,–,–,0.0759,–,–,0.0511,–,0.047,–,–
F173T,–,–,0.093,0.0666,0.0662,0.0792,0.0694,0.0807,–,–
N175A,–,0.0746,0.0801,0.07,0.0551,0.0546,0.0862,0.0568,–,0.0671
T181I,–,–,0.0706,–,–,–,–,–,–,0.0572

# Same assay, conditions: temperature: 34 °C; time window: 0-4 h after rhamnose induction
Variant,area with substrate ENLYFQY,area with substrate ENLYFQG,area with substrate ENLYFQP,area with substrate ENLYFQN,area with substrate ENLYFQF,area with substrate ENLYFQH,area with substrate ENLYFQQ
F92N,0.0688,–,–,–,–,–,–
I139T,–,0.139,0.0842,–,–,–,–
I145G,–,0.0702,–,–,–,–,–
W212S,–,–,0.0566,0.0696,–,–,–
G213C,–,–,0.0663,0.0422,–,–,–
G2N,–,–,–,–,0.125,0.0946,–
G2S,–,–,–,–,0.0923,0.101,–
G2Y,–,0.141,0.0458,0.115,0.115,–,–
V57Q,0.139,–,–,–,0.11,–,–
K66W,0.0631,0.0772,0.0632,0.0706,0.0556,0.0777,0.0612
M83R,–,–,–,–,0.0385,–,–
R87V,0.059,–,–,0.0977,0.0687,–,–
D91E,–,0.105,–,–,0.0649,–,–
F101S,0.0355,0.142,0.0475,–,0.0452,0.0562,–
T119L,–,–,–,–,0.07,–,–
C131I,–,–,–,0.0765,0.0805,–,–
C131K,–,0.0733,–,0.089,0.088,–,–
V165M,–,–,–,0.0667,0.0554,–,–
F173T,0.0568,–,0.058,–,0.0496,–,–
N175A,0.0645,0.0935,0.0588,0.0889,0.0576,0.0537,–
T181I,–,0.0824,–,–,0.0472,–,–

# From the supplement of paper PMC12217912
